Test results as given in PMC4336329 (PLoS ONE, 2015).
In all, about 310,000 compounds went through this assay and about 14,000 (4.5%) showed an effect of 50% or more. The effect is printed as a negative number. The list shows a part of the results.

These compounds were tested against human ether-à-go-go-related gene (hERG) potassium channel (human, UniProt Q12809) (assay: primary screen, population patch clamp on CHO cells stably expressing hERG).
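Further: peak tail current of the secondary pulse compared with the same well before compound.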

human ether-à-go-go-related gene (hERG) potassium channel, sequence (Q12809 whole entry, looked up): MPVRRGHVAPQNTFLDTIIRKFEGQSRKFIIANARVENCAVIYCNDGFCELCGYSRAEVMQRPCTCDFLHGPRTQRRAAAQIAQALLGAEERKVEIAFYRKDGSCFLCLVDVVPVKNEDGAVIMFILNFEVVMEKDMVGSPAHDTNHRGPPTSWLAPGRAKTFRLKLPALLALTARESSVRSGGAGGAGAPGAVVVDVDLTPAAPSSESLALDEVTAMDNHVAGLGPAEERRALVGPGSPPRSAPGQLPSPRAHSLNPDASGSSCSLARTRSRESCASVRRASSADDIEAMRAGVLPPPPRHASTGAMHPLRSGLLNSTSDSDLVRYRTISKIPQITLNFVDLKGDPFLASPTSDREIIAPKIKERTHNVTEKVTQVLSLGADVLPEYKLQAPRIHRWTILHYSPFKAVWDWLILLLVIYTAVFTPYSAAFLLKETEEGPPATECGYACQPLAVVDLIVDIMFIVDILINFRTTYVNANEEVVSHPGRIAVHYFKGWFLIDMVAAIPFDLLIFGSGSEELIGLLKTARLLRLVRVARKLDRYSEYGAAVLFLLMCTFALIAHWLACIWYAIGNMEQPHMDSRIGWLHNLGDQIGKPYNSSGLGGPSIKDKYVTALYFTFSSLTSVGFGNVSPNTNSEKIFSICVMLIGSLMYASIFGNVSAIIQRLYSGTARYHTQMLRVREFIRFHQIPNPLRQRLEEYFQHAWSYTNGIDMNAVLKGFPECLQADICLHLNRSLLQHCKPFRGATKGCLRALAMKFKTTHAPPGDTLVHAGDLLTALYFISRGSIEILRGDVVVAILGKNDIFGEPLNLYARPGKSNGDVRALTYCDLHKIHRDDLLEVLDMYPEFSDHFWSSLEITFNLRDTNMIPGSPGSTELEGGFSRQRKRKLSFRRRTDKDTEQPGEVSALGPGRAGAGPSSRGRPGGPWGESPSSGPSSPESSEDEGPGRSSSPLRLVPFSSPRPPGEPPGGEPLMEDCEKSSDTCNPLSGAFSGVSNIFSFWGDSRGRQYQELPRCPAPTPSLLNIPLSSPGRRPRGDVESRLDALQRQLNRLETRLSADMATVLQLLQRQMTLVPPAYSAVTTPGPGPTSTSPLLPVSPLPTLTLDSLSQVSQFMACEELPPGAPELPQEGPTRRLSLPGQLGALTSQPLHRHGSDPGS

Row | SMILES | hERG current change (%, negative = inhibition) at 10uM
1 | NC(=O)[C@H](Cc1cc2ccccc2s1)NC(=O)[C@@H]1CC2(CC(c3cccc(NC(=O)[C@@H]4CCC(=O)N4)c3)=NO2)CN1C(=O)/C=C/c1c(F)cccc1Cl (stereo partly drawn) | 8.52%
2 | CC12CN3CC(C)(CN(C1)C3c1ccc(Br)cc1)C2 (stereo not drawn) | -34.6%
3 | CC1C(=O)CC(c2ccccc2)N(C)C1c1ccccc1 (stereo not drawn) | -4.45%
4 | NS(=O)(=O)c1ccc(CCNC(=O)CCCC2=NS(=O)(=O)c3ccccc3N2)cc1 | 25.6%
5 | Cc1ccc(C(=O)NNC(=O)C(C)Sc2nc(N)cc(N)n2)cc1 (stereo not drawn) | -5.97%
6 | CC(C)c1cc(O)c(-c2ccccc2)c(=O)n1-c1ccc(Cl)cc1 | 7.93%
7 | Fc1cccc(CSc2ccc(-c3ccco3)nn2)c1 | 6.59%
8 | Cc1c(Cl)cccc1NC(=O)Nc1ccn(C)n1 | 5.52%
9 | O=C(CCC(=O)N/N=C/c1cc(Cl)cc(Cl)c1O)NCc1ccccc1 | 16.9%
10 | COc1cccc(NC(=O)CSc2nnc(-c3ccc(C)cc3)o2)c1 | 2.14%
11 | Cc1cc(C)nc(NS(=O)(=O)c2ccc(NC(=O)c3ccc(S(=O)(=O)N4CCOCC4)cc3)cc2)n1 | -0.968%
12 | Cc1ccc(S(=O)(=O)Cc2cc(F)c([N+](=O)[O-])cc2[N+](=O)[O-])cc1 | -14.3%
13 | O=C(Cn1nnc(-c2ccccc2NC(=O)c2ccccc2)n1)Nc1ccc2c(c1)OCCO2 | 1.49%
14 | Cc1nn(C)cc1/C=N/NC(=S)Nc1ccc(Cl)cc1Cl | 20.5%
15 | COc1cccc(CNC(=O)COc2cc(O)c3c(c2)OC(C)(C)CC3=O)c1 | -8.35%
16 | CSc1ccccc1C(=O)Nc1cc(C)ccc1C | -20.1%
17 | CCCCc1nc2cc(C(=O)N3CCCC(COC)C3)ccc2o1 (stereo not drawn) | -9.75%
18 | COc1ccccc1CN1CC(C(=O)N2CCC(C(=O)c3ccccc3)CC2)CCC1=O (stereo not drawn) | -14.4%
19 | CC(C)c1ccc(NC2CCCN(C(=O)c3ccnc(Cl)c3)C2)cc1 (stereo not drawn) | -4.89%
20 | CC(C)N1C(=O)CC2(CC[N+](C)(CCOC(=O)C(c3ccccc3)c3ccccc3)CC2)C1=O.[I-] (stereo not drawn) | 5.21%
21 | O=C(Nc1ccc(Br)cc1)c1cccn1-c1ncc(C(F)(F)F)cc1Cl | 3.91%
22 | CC(C)CN(C(=O)CN(C)C(=O)c1ccco1)c1c(N)n(CC(C)C)c(=O)[nH]c1=O | 18.8%
23 | CNc1c([N+](=O)[O-])cnn1-c1ccccc1F | 9.49%
24 | Cc1ccsc1CN1CC(=O)N(c2c(C)cccc2C)C1=S | -31.3%
25 | CN1CCN(c2ccc(S(=O)(=O)N3CCOCC3)cc2NC(=O)CC(C)(C)C)CC1 | 8.55%
26 | NNC(=O)c1cccc(COCC(F)(F)C(F)F)c1 | -2.32%
27 | O=C(Nc1ccc(F)cc1F)c1csc(-c2ccncc2)n1 | -23.8%

Row | SMILES | hERG current change (%, negative = inhibition) at 10uM
28 | O=C(NCc1cccnc1)C1CCCN(S(=O)(=O)c2ccc(Cl)cc2)C1 (stereo not drawn) | -26.9%
29 | O=c1[nH]c(=S)[nH]c2c1CN(Cc1ccc(F)cc1)CC2 | 14.8%
30 | Cc1ccc(NC(=O)CC2SC(=NC3CCCCC3)NC2=O)cc1 (stereo not drawn) | -9.82%
31 | Cc1nn(Cc2c(F)c(F)c(F)c(F)c2F)c(C)c1NC(=O)c1ccc(COc2ccc(F)cc2)o1 | -3.92%
32 | N#CC1=C2N=C(N)c3ccccc3N2C2=C(C(=O)CCC2)C1c1ccccc1F (stereo not drawn) | -14.9%
33 | Cl.N=c1ccn2c(n1)O[C@H]1[C@H](O)[C@@H](CO)O[C@H]12 | 18.7%
34 | CCOC(=O)C(C)Oc1cccc2c(=O)n(CC(=O)Nc3ccc4c(c3)OCCO4)ccc12 (stereo not drawn) | 15.1%
35 | CCOC(=O)c1nn(-c2ccccc2)c(=O)c(C#N)c1C | 13.5%
36 | O=C(COc1ccccc1)N/N=C/c1sc(=O)n(Cc2cccc(C(=O)O)c2)c1Cl | 13.9%
37 | NS(=O)(=O)c1ccc(-n2nncc2-c2ccco2)cc1 | 17.8%
38 | O=C(CCN1CCN(S(=O)(=O)c2cccc([N+](=O)[O-])c2)CC1)Nc1ccccc1F | -6.5%
39 | CCN(CC)C(=O)CSc1nnnn1-c1ccc(F)c(Cl)c1 | -3.28%
40 | COc1ccc(-n2ncc3c(N4CCN(c5cc(C)ccc5C)CC4)ncnc32)cc1 | 2.95%
41 | O=C(CNC(=O)c1ccccc1)N/N=C/c1ccccc1Cl | -0.473%
42 | Fc1ccccc1Cc1noc(CN2CCCC(CN3CCOCC3)C2)n1 (stereo not drawn) | -1.22%
43 | Cc1ccc(S(=O)(=O)N2CCC(C(=O)N/N=C/c3ccccc3[N+](=O)[O-])CC2)cc1 | 8.21%
44 | Cc1ncc(S(=O)(=O)c2ccc(Cl)cc2)c(N)n1 | -0.624%
45 | CCC(Sc1nc2c(c(=O)n1CC)SC(C)C2)C(=O)OC (stereo not drawn) | 3.32%
46 | CCNS(=O)(=O)c1ccc2c3c(cccc13)C(=O)N2 | 1.85%
47 | CC(C)(C)OC(=O)N1CCC(NC(=O)c2ncn(Cc3ccccc3)c2C(=O)NC2CCN(C(=O)OC(C)(C)C)CC2)CC1 | 12.1%
48 | NC(N)=NCc1cccc(I)c1.O=S(=O)(O)O | 11.6%
49 | CCN(CC)C(=O)CSC(Nc1ccc(F)cc1)=C(C#N)C#N | 7.9%
50 | CCC1SC(CC)C(=O)N(CC(=O)NCCc2ccccc2)C1=O (stereo not drawn) | 5.62%
51 | CCOc1ccccc1N1CCN(C(=O)CNC(=O)c2ccc(OC)c(OC)c2)CC1 | 11.9%
52 | O=[N+]([O-])c1ccc2cn(-c3ccccc3)nc2c1 | -0.226%
53 | Cc1c(C)n(CCN(C)C)c2ncnc(NCc3ccccc3)c12 | -36.8%
54 | C=CCC1(O)C(=O)N2C(=C1C(=O)N1CCOCC1)c1ccccc1CC2(C)C (stereo not drawn) | 0.705%
